Source: the supplement of paper PMC4604168 (melanoma cell lines)
Some of the results follow. Many values rest on one well or one pass, so single values are uncertain.

Tests used:
Experiment in all cases: cell count relative to DMSO control; melanoma cells; higher = more viable cells
Settings in all cases: library dose: low library concentration; 72 h
COLO792 = test system: COLO792
COLO800 = test system: COLO800
COLO829 = test system: COLO829
G361 = test system: G361
IPC-298 = test system: IPC-298
IST-MEL1 = test system: IST-MEL1
LB2518-MEL = test system: LB2518-MEL
LOXIMVI = test system: LOXIMVI
MEL-HO = test system: MEL-HO
MZ2-MEL = test system: MZ2-MEL
MeWo = test system: MeWo
RPMI7951 = test system: RPMI7951
RVH-421 = test system: RVH-421
SkMel28 = test system: SkMel28
SkMel2 = test system: SkMel2
SkMel30 = test system: SkMel30
SkMel5 = test system: SkMel5
UACC257 = test system: UACC257
UACC62 = test system: UACC62
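Note: cell number obtained by counting DAPI-stained nuclei in high-throughput microscope images with image analysis software, screen run in 1,536-well plates.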

Row | SMILES | cell count (COLO792) [%] | cell count (COLO800) [%] | cell count (COLO829) [%] | cell count (G361) [%] | cell count (IPC-298) [%] | cell count (IST-MEL1) [%] | cell count (LB2518-MEL) [%] | cell count (LOXIMVI) [%] | cell count (MEL-HO) [%] | cell count (MZ2-MEL) [%] | cell count (MeWo) [%] | cell count (RPMI7951) [%] | cell count (RVH-421) [%] | cell count (SkMel28) [%] | cell count (SkMel2) [%] | cell count (SkMel30) [%] | cell count (SkMel5) [%] | cell count (UACC257) [%] | cell count (UACC62) [%]
1 | CC1(C)NC(=O)N(c2ccc([N+](=O)[O-])c(C(F)(F)F)c2)C1=O [nilutamide] + Cc1ccc(NC(=O)c2cccc(N(C)C)c2)cc1NC(=O)c1ccc(O)cc1 [ZM336372] (first compound 1 µM, partner dose 2 µM) | 116 | 146 | 103 | 101 | 90.6 | 97.5 | 88 | 159 | 88.3 | 77.8 | 101 | 83.7 | 125 | 94.4 | 117 | 57 | 88.9 | 103 | 102
2 | C[C@@H]1CCN(C(=O)CC#N)C[C@@H]1N(C)c1ncnc2[nH]ccc12 + COc1cc2c(Oc3ccc4[nH]c(C)cc4c3F)ncnc2cc1OCCCN1CCCC1 [cediranib] (first compound 1 µM, partner dose 0.4 µM) | 82.5 | 90.8 | 119 | 93.1 | 94.9 | 113 | 101 | 73.1 | 87.1 | 101 | 97.5 | 107 | 105 | 120 | 95.9 | 72.9 | 101 | 92.5 | 82.9
3 | O=c1[nH]nc(Sc2ncc([N+](=O)[O-])s2)n1-c1ccc2c(c1)OCCO2 + Cn1cncc1[C@@](N)(c1ccc(Cl)cc1)c1ccc2c(c1)c(-c1cccc(Cl)c1)cc(=O)n2C [tipifarnib] (first compound 0.2 µM, partner dose 0.01 µM) | 97.8 | 84.5 | 85.1 | 115 | 92 | 96 | 80.8 | 131 | 90.1 | 107 | 96.6 | 104 | 89.3 | 95.4 | 82 | 68.2 | 114 | 85 | 87.4
4 | COc1cc(Nc2ncc(F)c(Nc3ccc4c(n3)NC(=O)C(C)(C)O4)n2)cc(OC)c1OC [Tamatinib] + COc1cc2c(Oc3ccc4[nH]c(C)cc4c3F)ncnc2cc1OCCCN1CCCC1 [cediranib] (first compound 0.4 µM, partner dose 0.4 µM) | 52.7 | 76.7 | 81.6 | 79.4 | 82.3 | 101 | 88 | 72.5 | 95.7 | 91.4 | 90.8 | 76.1 | 96 | 83.4 | 106 | 72.1 | 75.2 | 62.8 | 65.1
5 | O=C(Nc1cccc(Cl)c1)Nc1ncc(CCNc2ncnc3ccsc23)s1 + COc1cc2c(Oc3ccc4[nH]c(C)cc4c3F)ncnc2cc1OCCCN1CCCC1 [cediranib] (first compound 0.0008 µM, partner dose 0.4 µM) | 80.8 | 82.5 | 116 | 105 | 105 | 93.3 | 101 | 94.5 | 106 | 96.2 | 107 | 129 | 84.8 | 98.8 | 98.4 | 114 | 87 | 74.8 | 108
6 | O=c1[nH]nc(Sc2ncc([N+](=O)[O-])s2)n1-c1ccc2c(c1)OCCO2 + COC(=O)c1sccc1S(=O)(=O)Nc1ccc(Nc2ccccc2)cc1OC [GSK0660] (first compound 0.2 µM, partner dose 1 µM) | 109 | 84.6 | 89.6 | 91.9 | 103 | 103 | 130 | 97.3 | 103 | 92.3 | 101 | 107 | 92.5 | 89 | 92.3 | 109 | 91.3 | 105 | 93.9
7 | CC1(C)NC(=O)N(c2ccc([N+](=O)[O-])c(C(F)(F)F)c2)C1=O [nilutamide] + O=C(Nc1cccc(Cl)c1)Nc1ncc(CCNc2ncnc3ccsc23)s1 [SNS314] (first compound 1 µM, partner dose 0.0008 µM) | 104 | 93.5 | 110 | 96.8 | 102 | 97.9 | 90.5 | 142 | 92.4 | 104 | 95.6 | 119 | 81.9 | 103 | 93.3 | 125 | 97.9 | 78.3 | 97.8
8 | O=C(Nc1cccc(Cl)c1)Nc1ncc(CCNc2ncnc3ccsc23)s1 + CN(C)S(=O)(=O)c1ccc2c(c1)/C(=C/c1cc3c([nH]1)CCCC3)C(=O)N2 [SU6656] (first compound 0.0008 µM, partner dose 0.4 µM) | 91.8 | 109 | 97.5 | 83.4 | 95.9 | 103 | 105 | 90.5 | 88.6 | 103 | 86.1 | 101 | 94.4 | 83.2 | 100 | 95 | 96.5 | 81.5 | 74.6
9 | O=c1[nH]nc(Sc2ncc([N+](=O)[O-])s2)n1-c1ccc2c(c1)OCCO2 + c1cc(-c2cnn3cc(-c4ccc(OCCN5CCCCC5)cc4)cnc23)ccn1 [Dorsomorphin] (first compound 0.2 µM, partner dose 0.4 µM) | 91.5 | 129 | 109 | 97 | 99.9 | 110 | 110 | 99.9 | 102 | 102 | 104 | 90.5 | 100 | 117 | 104 | 95.8 | 90.2 | 83 | 104
10 | COc1cc(Nc2ncc(F)c(Nc3ccc4c(n3)NC(=O)C(C)(C)O4)n2)cc(OC)c1OC [Tamatinib] + Cc1cc(N2CCOCC2)cc2[nH]c(-c3c(NC[C@@H](O)c4cccc(Cl)c4)cc[nH]c3=O)nc12 [BMS536924] (first compound 0.4 µM, partner dose 0.2 µM) | 42.3 | 55.7 | 86.4 | 86.6 | 67.5 | 95.3 | 61.6 | 72.8 | 85.9 | 85.7 | 78.9 | 95.6 | 79.9 | 69.3 | 76.2 | 86.3 | 81.6 | 51.1 | 88
11 | O=c1[nH]nc(Sc2ncc([N+](=O)[O-])s2)n1-c1ccc2c(c1)OCCO2 + O=C1NC(=O)/C(=C/c2ccc(-c3ccc(F)cc3O)o2)S1 [AS252424] (first compound 0.2 µM, partner dose 1 µM) | 102 | 112 | 118 | 121 | 100 | 100 | 87.8 | 94.8 | 95.9 | 103 | 87.2 | 97.9 | 90.6 | 105 | 104 | 102 | 118 | 100 | 99.3
12 | CC1(C)NC(=O)N(c2ccc([N+](=O)[O-])c(C(F)(F)F)c2)C1=O [nilutamide] + OCCn1cc(-c2cnc3nnn(Cc4ccc5ncccc5c4)c3n2)cn1 [PF04217903] (first compound 1 µM, partner dose 1 µM) | 94.5 | 69.6 | 91.1 | 87.6 | 101 | 98.1 | 109 | 83.2 | 96.7 | 104 | 107 | 121 | 86.9 | 114 | 99.8 | 118 | 104 | 102 | 114
13 | C[C@@H]1CCN(C(=O)CC#N)C[C@@H]1N(C)c1ncnc2[nH]ccc12 + NCC(=O)Nc1ccc(-n2nc(C(F)(F)F)cc2-c2ccc3c(ccc4ccccc43)c2)cc1 [OSU03012] (first compound 1 µM, partner dose 1 µM) | 111 | 78.4 | 98.9 | 101 | 78 | 83 | 106 | 92.2 | 90.8 | 88.9 | 58.5 | 107 | 107 | 85.7 | 65.7 | 46.3 | 85.2 | 90.7 | 96.4
14 | CC1(C)NC(=O)N(c2ccc([N+](=O)[O-])c(C(F)(F)F)c2)C1=O [nilutamide] + Cn1cncc1[C@@](N)(c1ccc(Cl)cc1)c1ccc2c(c1)c(-c1cccc(Cl)c1)cc(=O)n2C [tipifarnib] (first compound 1 µM, partner dose 0.01 µM) | 86.5 | 158 | 76.7 | 77.8 | 86.7 | 92.3 | 84 | 117 | 72.8 | 101 | 98.7 | 94.8 | 73.6 | 84.3 | 76.5 | 78.9 | 93.3 | 73.8 | 59.9
15 | O=c1[nH]nc(Sc2ncc([N+](=O)[O-])s2)n1-c1ccc2c(c1)OCCO2 + CCCCCCCCCCCC1=C(O)C(=O)C=C(O)C1=O [Embelin] (first compound 0.2 µM, partner dose 1.2 µM) | 102 | 108 | 111 | 102 | 102 | 105 | 94.8 | 88 | 97.2 | 103 | 94.2 | 84.6 | 105 | 105 | 93.4 | 116 | 84.7 | 120 | 99.8
16 | COc1cc(Nc2ncc(F)c(Nc3ccc4c(n3)NC(=O)C(C)(C)O4)n2)cc(OC)c1OC [Tamatinib] + Cc1ccc(NC(=O)c2cccc(N(C)C)c2)cc1NC(=O)c1ccc(O)cc1 [ZM336372] (first compound 0.4 µM, partner dose 2 µM) | 60.4 | 78 | 87.1 | 100 | 68.9 | 88.1 | 61.3 | 79.8 | 83.7 | 74.4 | 86.6 | 72.1 | 86 | 81.2 | 101 | 81.1 | 90.9 | 77.4 | 82.6
17 | O=C(O)c1ccc(-c2c[nH]c3ncc(-c4ccccc4)cc23)cc1C1CCCC1 + COc1cc2c(Oc3ccc4[nH]c(C)cc4c3F)ncnc2cc1OCCCN1CCCC1 [cediranib] (first compound 0.16 µM, partner dose 0.4 µM) | 85.5 | 70.4 | 100 | 77.7 | 98 | 92.3 | 99.8 | 92.2 | 89.1 | 90.4 | 91.3 | 88.2 | 59.9 | 88.6 | 85 | 93.1 | 71.5 | 90.2 | 88
18 | CC1(C)NC(=O)N(c2ccc([N+](=O)[O-])c(C(F)(F)F)c2)C1=O [nilutamide] + C[C@@H]1CCN(C(=O)CC#N)C[C@@H]1N(C)c1ncnc2[nH]ccc12 [CP690550] (first compound 1 µM, partner dose 1 µM) | 85.3 | 133 | 113 | 84.2 | 103 | 104 | 111 | 97.1 | 95.4 | 97.9 | 93.9 | 85.8 | 106 | 91.3 | 105 | 96.6 | 95.9 | 94.6 | 85.7
